Our source for the binding signal values is publication PMC12136788.

The chains are these.
B1: chr4:86814747:86814848:+|3pUTR|ENSG00000163629|unk|FALSE|unique (ssRNA)
RNA: GGGAGUUCUACAGUCCGACGAUCUACUUUAACCUAUGAUAAUUAUUUACAAAAUUUUAACACUAACCAAACAAUGCAGAUCUUAGGGAUGAUUAAAGGCAGCAUUUGAUGAUAGCAGACAUUGUUACAAGGACAUGGUGAGUCCAACAGAGGAUUGAGCAUCA
B2: chr3:7579146:7579247:+|CDS|ENSG00000196277|unk|FALSE|unique (ssRNA)
RNA: GGGAGUUCUACAGUCCGACGAUCGCCAGAGGGGUUCUCAAGUGUGACAUUACAGAUCUCCAAAUCAUUUGCUCCUUGGGAUAUAGCAUUCUUCUCAUGGUCACAUGUACUGUGUAUGCCAUCAAGACUCGGGGUGUACCCGAGCAACAGAGGAUUGAGCAUCA
B3: ENSG00000100242:stop:overlap|stop_codon|ENSG00000100242|stop_codon|NA|stop_codon (ssRNA)
RNA: GGGAGUUCUACAGUCCGACGAUCGGGGCCACCCCGAGUACACCUGCAUCUACCGCUUCAGAGUGCAUGGGGAGCCCGCCCACUAGCCCUGCUUACUGGUGCCUGCUGCCAGCCAUCUGGGAGUGGGUGAACAGCACCCCGCCGCAACAGAGGAUUGAGCAUCA
B4: ENSG00000107863:be:win_5551|CDS|ENSG00000107863|bound_else_gene|NA|bound_elsewhere_windowed (ssRNA)
RNA: GGGAGUUCUACAGUCCGACGAUCGACUGGCUGGCCAGGGAACGCCUACGCACCAGUACCUCUGACCUUAGCAGAGGAGAAAUCGGAGAUCCCCAGACAGAGAACCCAAGCACACGAGAAAUAGCCACGACCGACACACCUUUGCAACAGAGGAUUGAGCAUCA
B5: ENSG00000151892:stop:overlap|stop_codon|ENSG00000151892|stop_codon|NA|stop_codon (ssRNA)
RNA: GGGAGUUCUACAGUCCGACGAUCCACUGCUGGUCCUGGUGGUAACCGCUCUGUCCACCCUAUUAUCUUUAACAGAAACAUCAUAGCUGCAUUAAAAAAAUACAAUAUGGACAUGUAAAAAGACAAAAACCAAGUUAUCUGUUUCAACAGAGGAUUGAGCAUCA
B6: chr12:25205306:25205412:-|3pUTR|ENSG00000133703|unk|FALSE|unique (ssRNA)
RNA: GGGAGUUCUACAGUCCGACGAUCGUCAUAUCAAACAUUAAAAAUGACCACUCUUUUAAUUGAAAUUAACUUUUAAAUGUUUAUAGGAGUAUGUGCUGUGAAGUGAUCUAAAAUUUGUAAUAUUUUUGUCAUGAACUGUACUACCAACAGAGGAUUGAGCAUCA
B7: chr17:63354981:63355093:+|CDS|ENSG00000170921|unk|FALSE|bound_elsewhere (ssRNA)
RNA: GGGAGUUCUACAGUCCGACGAUCCAGUCAAGGGUCCUAUCUAUAUCUGAAACUUACAUUUGACCUCAUAGAGAAAGGCUAUCUAGUGUUAAAGAGCUCUAGCUACAAAGUAGUUCCUGUUUCGCUCUCAGAGGUUUAUUUACUCAACAGAGGAUUGAGCAUCA
B8: chr18:55223968:55224079:-|3pUTR|ENSG00000196628|unk|total|mutant (ssRNA)
RNA: GGGAGUUCUACAGUCCGACGAUCUAUAAAGCUUUGUUUGUCCCGUGCUCUUUUGCUAUAAAACCGACUGCCGUACACCCCCGCCGGAAAAAAAAAAAACUAAAUUUAAAAAUAAAAAAUAUAUUUGGCUUAUUUUUCGCAGGACAACAGAGGAUUGAGCAUCA
B9: chr17:3662948:3663056:-|3pUTR|ENSG00000213977|unk|total|mutant (ssRNA)
RNA: GGGAGUUCUACAGUCCGACGAUCAGUUUGAUACAAAAUGUUUUUAUCGUACUCUUUGGAGAUGCCCAUUCUACUUUUGAAUUCCGCUUUUACUAAUUCGCAUCUGGAAGCUCAGCAAGUGCACAAGCCUUACUUUGGUUACCGCAACAGAGGAUUGAGCAUCA
B10: chr10:74120044:74120145:+|3pUTR|ENSG00000035403|msi1|FALSE|unique (ssRNA)
RNA: GGGAGUUCUACAGUCCGACGAUCAAAAAAAAUCCCUGAAUGAUGAUUAGAGACAUCACCGCUAAAAAACUACAUUUAUAAGCUAGGAUUUGUUAUAUGCAAAUAUUUUCUGCCUCUUCUUUUGUUCUGUUUAAAACAAUAAAACAACAGAGGAUUGAGCAUCA
B11: chr10:119072878:119073036:-|CDS|ENSG00000107581|unk|total|mutant (ssRNA)
RNA: GGGAGUUCUACAGUCCGACGAUCCUUUUAACUCCAUGGGUUAAAUUCCUGUGGGAGUCUUACAGGCAGUGUUUGGACCUUCUCCGAAACAAUUCCCGAGCCGAGCGCCUGUACCAUGAUAUUGCCCAGCAAGGUAAGAUGAGACAACAGAGGAUUGAGCAUCA
B12: chr17:48058596:48058697:+|CDS|ENSG00000082641|msi1|FALSE|unique (ssRNA)
RNA: GGGAGUUCUACAGUCCGACGAUCCAAUGGCACAGCCAAUGACACAGCAGGCCCAGAGCUGCCUGACCCUUUGGGGGGUCUGUUAGAUGAAGCUAUGUUGGAUGAGAUCAGCCUUAUGGACCUGGCCAUUGAAGAAGGCUUUAACAACAGAGGAUUGAGCAUCA
B13: chr9:21140631:21140982:-|three_prime_utr|ENSG00000177047|control|control|control (ssRNA)
RNA: GGGAGUUCUACAGUCCGACGAUCGUGACUCUGGUCAAUUCAAAAGACUCUUAUUUCGGCUUUAAUCACAGAAUUGACUGAAUUAGUUCUGCAAAUACUUUGUCGGUAUAUUAAGCCAGUAUAUGUUAAAAAGACUUAGGUUCACAACAGAGGAUUGAGCAUCA
B14: ENSG00000107863:be:win_951|CDS|ENSG00000107863|bound_else_gene|NA|bound_elsewhere_windowed (ssRNA)
RNA: GGGAGUUCUACAGUCCGACGAUCCACAUCACCACCAUUAUCAAUUCCCACCACUCAUCUAAUUCAUCAGCCUGCAGGCUCCAGAUCACUGGAACCUUCUGGAAUUUUACUUAAGUCUGGAAAUUACAGUGGACAUUCUGAUGGCAACAGAGGAUUGAGCAUCA

The other results are listed elsewhere or left out.

This test deals with MSI1 full-length (mouse, UniProt Q61474 1-362). The experiment in a line: nsRBNS (natural sequence RNA bind-n-seq); RBNS binding buffer (assumed for nsRBNS): 25 mM Tris pH 7.5, 150 mM KCl, 3 mM MgCl2, 0.01% Triton X-100, 500 ug/ml BSA, 20 U/ml SUPERase-In, 4 C; UNK is unkempt and MSI1 is Musashi-1; names of the RNAs are library labels; protein concentration not given here; high values mean tight binding.
Sequence of UniProt Q61474 (Q61474 whole entry): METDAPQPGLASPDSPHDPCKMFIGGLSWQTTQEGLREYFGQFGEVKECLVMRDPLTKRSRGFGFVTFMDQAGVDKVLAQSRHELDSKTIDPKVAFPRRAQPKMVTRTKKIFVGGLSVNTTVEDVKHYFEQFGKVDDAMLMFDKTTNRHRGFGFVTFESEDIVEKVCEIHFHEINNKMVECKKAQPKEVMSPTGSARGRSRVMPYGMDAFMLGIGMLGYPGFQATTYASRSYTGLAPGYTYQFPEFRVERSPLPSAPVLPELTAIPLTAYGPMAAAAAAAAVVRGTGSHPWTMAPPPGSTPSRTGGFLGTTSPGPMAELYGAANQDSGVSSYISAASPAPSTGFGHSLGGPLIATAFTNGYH
For the molecule B1, the binding signal is 5.27 enrichment R.

The molecule B2 had a binding signal of 0.423 enrichment R.

The molecule B3 came in with a binding signal of 0.497 enrichment R.

Take B4: the binding signal was determined as 0.543 enrichment R.

With B5, the binding signal was found to be 0.311 enrichment R.

In turn, B6 displayed a binding signal of 0.678 enrichment R.

As to B7, the binding signal is 2.03 enrichment R.

In the case of B8, the binding signal was found to be 0.505 enrichment R.

B9: the binding signal turned out to be 0.314 enrichment R.

Molecule B10 had a binding signal of 4.59 enrichment R.

In turn, B11 yielded a binding signal of 0.197 enrichment R.

The molecule B12 gave a binding signal of 0.367 enrichment R.

The molecule B13 came in with a binding signal of 0.985 enrichment R.

Molecule B14 registered a binding signal of 0.418 enrichment R.
